Data from PubChem BioAssay AID1768 (National Center for Advancing Translational Sciences (NCATS), 2009).
Several values for one entry are separate records, joined by “and”; a condition that tells them apart may be missing. Equal entries are not always repeated. About 620 (0.23%) of roughly 270,000 compounds were called active. The inconclusive results got no clear call from the source; some entries with a clear call stand among them for comparison. The call rests on the fitted dose curve; in most records, active means well fitted inhibition curve with a large enough effect in the polarisation, with a control signal flat (not every such curve was filed as active); inconclusive means small, poorly fitted or top-dose-only effect, or effect the other way, or a change in a side signal; inactive means no such curve, though single readings can be large or run the other way; the % refers to the polarisation. Potencies of inconclusive entries are doubtful fits and often do not repeat. “Side channel” marks fits to a control or component signal instead of the main read-out.

These compounds were tested against Menin (Homo sapiens) (UniProt O00255) (assay: qHTS Assay for Inhibitors Targeting the Menin-MLL Interaction in MLL Related Leukemias: Competition With Texas Red Labeled MLL-derived Mutant Peptide). Details: fluorescence polarization; FP activity change, negative = inhibition: at 61.6 µM (top of the series).
Sequence of UniProt O00255 (O00255 whole entry, looked up): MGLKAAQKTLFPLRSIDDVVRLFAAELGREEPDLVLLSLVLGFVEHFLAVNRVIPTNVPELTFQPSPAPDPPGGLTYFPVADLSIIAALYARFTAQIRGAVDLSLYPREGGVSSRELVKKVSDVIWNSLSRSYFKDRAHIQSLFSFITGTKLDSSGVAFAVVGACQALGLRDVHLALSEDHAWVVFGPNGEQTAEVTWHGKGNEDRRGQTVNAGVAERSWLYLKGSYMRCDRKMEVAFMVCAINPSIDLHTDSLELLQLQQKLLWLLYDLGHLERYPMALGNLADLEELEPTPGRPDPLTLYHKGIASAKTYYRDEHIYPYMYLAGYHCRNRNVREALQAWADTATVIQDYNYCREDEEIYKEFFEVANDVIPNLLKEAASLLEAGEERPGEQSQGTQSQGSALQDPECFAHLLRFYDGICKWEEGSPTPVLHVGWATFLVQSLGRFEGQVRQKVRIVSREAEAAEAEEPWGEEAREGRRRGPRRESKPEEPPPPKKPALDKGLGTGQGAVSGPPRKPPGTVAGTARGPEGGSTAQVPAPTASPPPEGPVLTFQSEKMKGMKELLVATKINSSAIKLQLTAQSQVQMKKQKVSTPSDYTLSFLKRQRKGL
Potency means the concentration at half of the fitted maximal effect; tags describe the fitted curve by direction and shape or compound fluorescence and quenching.
Wherever FP activity change, negative = inhibition is given: % of control where 0% means no effect.

Potency, inconclusive:
COc1ccc2c(C)cc(SCC(=O)Nc3c(C)n(C)n(-c4ccccc4)c3=O)nc2c1 1.58 µM [inhibitor, full curve, poor fit]
COc1ccc(NC(=O)CC2C(=O)N(CCc3ccccc3)C(=S)N2Cc2cccnc2)cc1 (stereo not drawn) 11.2 µM [quencher, side channel, partial curve]
O=C(/C=C/c1ccco1)NC(=S)Nc1ccc(N2CCOCC2)c(Cl)c1 25.1 µM [quencher, side channel, single point]
O=C(COc1nsnc1N1CCOCC1)Nc1ccc(Br)cc1 25.1 µM [quencher, side channel, single point]
CCSc1nnc2c3cc(CC)ccc3n(C)c2n1 35.5 µM [fluorescent, side channel, single point]
CC(/C=N/n1c(-c2ccc(Cl)cc2)n[nH]c1=S)=C\c1ccco1 35.5 µM [quencher, side channel, partial curve]
Cc1cccc(CN2CCN(Cc3cnn(-c4ccccc4F)c3)CC2CCO)n1 (stereo not drawn) 39.8 µM [fluorescent, side channel, single point]
COc1ccc([N+](=O)[O-])cc1NC(=O)Nc1ccc(OC)c(OC)c1 28.2 µM [quencher, side channel, partial curve]
O=C(C1=C[C@H](c2ccc(C(F)(F)F)cc2)C[C@H](OCCCCO)O1)N1CCN(Cc2ccc3c(c2)OCO3)CC1 8.91 µM [fluorescent, side channel, partial curve]
CCN1C(=O)/C(=C\N(C(C)=O)c2ccccc2)OC1=S 3.98 µM [inhibitor, full curve]
COCC(=O)n1nc(-c2ccc(Cl)cc2)nc1NCc1ccc(F)cc1 11.2 µM [quencher, side channel, partial curve]
O=C(N/N=C/c1cccs1)c1cc(-c2ccc(Cl)s2)[nH]n1 35.5 µM [quencher, side channel, partial curve]
NC(=S)N/N=C/c1ccc(OC(=O)c2cccnc2)cc1 39.8 µM [inhibitor, single point]
CCOC(=O)c1[nH]ncc1CN1CCCC(C(=O)c2ccc(SC)cc2)C1 (stereo not drawn) 1.41 µM [inhibitor, full curve, poor fit]
CC(=O)Oc1ccc(C(=O)Nc2ccc(C3(C#N)CCCC3)cc2)cc1 39.8 µM [inhibitor, single point]
C=C(C)C1CC=C(C)/C(=N/NC(=O)c2ccccc2[N+](=O)[O-])C1 (stereo not drawn) 14.1 µM [fluorescent, side channel, partial curve]
Oc1ccccc1-c1nc(NC2CCCC2)c2ccccc2n1 2.82 µM [quencher, side channel, full curve]
O=c1[nH]c2cc(Cl)ccc2c(O)c1-c1cccc(Oc2ccccc2)c1 39.8 µM [quencher, side channel, partial curve] and 39.8 µM [inhibitor, single point]
COc1cccc(-c2nccc(NCc3ccccc3)n2)c1 39.8 µM [quencher, side channel, single point]
COc1ccc(Br)cc1/C=N/Nc1ccccn1 35.5 µM [quencher, side channel, single point]
O=[N+]([O-])c1ccc(/C=C/C2=NN(c3ccccc3)C(c3ccco3)C2)o1 (stereo not drawn) 15.8 µM [fluorescent, side channel, partial curve]
CCSc1nnc(NC(=O)Cc2ccccc2OC)s1 28.2 µM [fluorescent, side channel, single point]
NC(N)=NS(=O)(=O)c1ccc(NC(=S)NC(=O)c2ccc3c(c2)OCO3)cc1 14.1 µM [fluorescent, side channel, partial curve]
Cc1ccc(NS(=O)(=O)c2cccc3cccnc23)c(Br)c1 20 µM [inhibitor, partial curve, poor fit]
COc1ccccc1-c1ccc2ncnc(N3CCN(C)CC3)c2c1 39.8 µM [inhibitor, single point]
COc1ccc(Cl)cc1NC(=O)CCNC(=O)Cn1ccc2ccccc2c1=O 39.8 µM [fluorescent, side channel, single point]
CCc1ccc(C(=O)NNC(=S)Nc2ccc(S(N)(=O)=O)cc2)s1 20 µM [quencher, side channel, partial curve]
COc1ccc(Nc2nc(-c3c(C)nc4ncccn34)cs2)cc1 39.8 µM [quencher, side channel, single point]
O=C1NC(=O)c2cc(Nc3ccc(F)cc3)c(Nc3ccc(F)cc3)cc21 35.5 µM [quencher, side channel, single point] and 22.4 µM [quencher, side channel, partial curve]
CCCCCCCCS(=O)c1sc2nc(C)cc(C)c2c1N (stereo not drawn) 39.8 µM [fluorescent, side channel, single point]
N#Cc1c(N)nc(SCC(=O)NC2CCCCC2)c(C#N)c1-c1ccc(Cl)cc1 39.8 µM [fluorescent, side channel, single point]
Cc1ccc(Nc2nc(-c3sc(NC(=O)c4cccc(Cl)c4)nc3C)cs2)cc1 6.31 µM [quencher, side channel, partial curve]
CC1=NCCN1S(=O)(=O)c1ccc(Br)c(C)c1 7.08 µM [inhibitor, full curve]
COc1ccc([C@@H]2Sc3ccccc3N(CCN(C)C)C(=O)[C@@H]2OC(C)=O)cc1 12.6 µM [fluorescent, side channel, partial curve]
COc1cc(/C=C(\C#N)c2nc3ccccc3[nH]2)c([N+](=O)[O-])cc1OCc1ccccc1 22.4 µM [quencher, side channel, partial curve]
O=C(COC(=O)c1ccc(S(=O)(=O)N2CCCC2)cc1)NCc1ccc(Cl)cc1 35.5 µM [inhibitor, single point]
CC(=O)c1cccc(NC(=O)c2ccc(-c3ccccc3[N+](=O)[O-])o2)c1 12.6 µM [quencher, side channel, partial curve]
Cn1cc(SCC(=O)Nc2nc3ccccc3s2)c2ccccc21 17.8 µM [quencher, side channel, partial curve]
O=C(N/N=C/c1cccc([N+](=O)[O-])c1)c1ccc2nc[nH]c2c1 28.2 µM [quencher, side channel, single point]
CCCCN(C)S(=O)(=O)c1c(C)[nH]c(=O)[nH]c1=O 12.6 µM [inhibitor, partial curve, poor fit]
COc1cccc(-c2nc(CS(=O)(=O)CC(=O)NCCCc3ccccc3)c(C)o2)c1 22.4 µM [fluorescent, side channel, single point]
Cn1c2c(c(=O)n(C)c1=O)C(NC(=O)c1ccco1)(C(F)(F)F)C(=O)N2 (stereo not drawn) 31.6 µM [inhibitor, single point]
Cc1ccc(C2=NN(C(=O)COc3ncnc4ccccc34)C(c3ccco3)C2)cc1 (stereo not drawn) 3.16 µM [fluorescent, side channel, full curve, poor fit]
COc1ccc([C@@H]2CC(=O)c3c(O)cc(O[C@H]4O[C@@H](CO[C@H]5O[C@@H](C)[C@@H](O)[C@@H](O)[C@@H]5O)[C@@H](O)[C@@H](O)[C@@H]4O)cc3O2)cc1O 7.94 µM [fluorescent, side channel, full curve, poor fit]
Cc1cc(C)cc(NC2=C(N)C(=O)c3ccccc3C2=O)c1 31.6 µM [quencher, side channel, partial curve]
COc1cnc(-c2ccccn2)nc1Oc1ccc(Cl)cc1 1.58 µM [fluorescent, side channel, partial curve]
Nc1nonc1C(=O)NCCNCc1cc(Br)ccc1OCc1ccccc1F 20 µM [fluorescent, side channel, single point]
NC(=O)c1cc2c3ccccc3ccn2c1-c1ccccc1 25.1 µM [quencher, side channel, partial curve]
CCOc1ccc(C(CCc2ccccc2)NC(=O)c2ccccc2F)cc1OCC (stereo not drawn) 15.8 µM [fluorescent, side channel, partial curve]

FP activity change, negative = inhibition, inactive:
COc1cc(NC(=O)c2ccc3c(SCC(=O)O)c4c(nc3c2)CCCC4)cc(OC)c1OC 22.7%
O=C(NCc1ccccc1)c1onc(CSc2ccc(F)cc2)c1C(=O)NCCCN1CCOCC1 -27.8%
CO[C@@H]1COC(=O)CCC[C@@H](C)[C@H](OC)COC(=O)CCC[C@H]1C 16.8% [at 11.7 µM]
COCCC(=O)N1CCC(Oc2ccc(C(=O)N(C)CCCC3CCCC3)cc2)CC1 -13.1%
